Experimental data published in the supplement of paper PMC3334620.
Whole data set: some 33,000 sequences, median “E-score (-0.5 to 0.5)” near -0.056, cut for the highest 2% near 0.38. The list shows a part of the results.

target: Stb4 (UniProt P50104); assay: PBM E-score (8-mer binding enrichment) (E-score (-0.5 to 0.5)); higher = stronger / more preferred TF binding; most listed sequences are background and not binding sites; details: protein concentration: 200 nM; construct: GST-DNA-binding domain
Outline: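 Each ungapped eight-base word and its reverse complement, pooled, received an E-score from the Universal PBM Analysis Suite. Underlying scans, normalised with masliner, recorded fluorescent anti-GST bound to GST-tagged yeast transcription factors. These were applied at about 100-200 nM to universal all-10-mer Agilent arrays double-stranded by primer extension.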

Sequence	PBM E-score
AAATAGTA	-0.0686
ACTGTCTG	-0.0825
CTATCGAG	-0.194
CCGTACTC	0.00399
GGTCACCA	-0.165
GCCGCCTA	-0.194
AGTTATCG	0.0187
CGTGGGGC	-0.121
AAGCTAAT	-0.0799
ACCAACAT	-0.0973
CTGTGTAC	-0.102
CCAGCGAA	-0.0403
CAGGTGAA	-0.225
CAGATCCA	0.0283
ACTGTAAA	-0.0512
AAACCAAA	-0.0346
ATGGGTAG	-0.0557
CATAAGAC	0.0362
TGACCGAA	0.186
ACCCGGAG	0.373
GCCGACAC	0.334
GAGGATTA	-0.137
GAACTTGC	0.0628
CTTCGATA	-0.0771
GGCAGTAA	0.153

Sequence	PBM E-score
GCAGCACA	-0.0912
AGTGTGCC	-0.016
CGGGGGTA	0.249
CCCGAAAA	0.428
AGGCTAAT	-0.0464
CACGCTTA	-0.139
AATGCTGT	-0.257
GCCTGCCA	-0.171
CATGTACC	0.00657
ACTGACCG	0.0627
CATCTTGA	-0.112
GGAGATAC	0.151
CGTGACAA	0.0349
CTTCCCGA	0.438
ATCTTGAG	-0.202
GGGACGAA	0.0281
CAGGGCGA	-0.16
AACGCATT	0.0198
ATCGACTC	-0.187
AGTCATCA	-0.195
AGCCCAAC	-0.206
CGTCGCAG	-0.19
ACGTAACC	-0.0457
GGACATTA	0.201
GGATGGTA	0.192

Sequence	PBM E-score
CAATGATG	-0.0788
CCCGGTGA	0.157
GATTTCAA	0.0907
TGATAAAA	-0.0907
ATGATTAG	-0.0462
ATAGGACG	-0.122
AGCCACCT	-0.245
GGCTACCA	-0.127
CGTTACGA	0.108
GCATGCGA	-0.0513
GCCGTGAC	0.117
GGTTCTGA	-0.0424
CCCCTCCC	0.206
TAAAAGTA	0.116
AATCAAGA	-0.216
ATGGCCCA	0.0885
GTTCGCCA	-0.127
AAAGGACT	0.0649
GCCCGCAA	0.00771
CATCAAAA	-0.0393
ACAGATAT	-0.15
AAACTAAG	0.00403
ACGTTTCG	0.0854
ATCATCAT	-0.0104
GAATAGGA	-0.076

Sequence	PBM E-score
CGGAGCAA	0.281
CGGATCTA	0.391
CTCTTACA	-0.378
ATGTAAAC	0.0204
ACTCCCGC	0.234
ACACGCCA	0.0744
TAGAGCGA	-0.157
ACTAAAAC	-0.00594
TACGAAAA	-0.0536
AGCTGTCC	-0.277
GGGTGTCA	0.0604
TACGCCTA	-0.219
AGAGTTTG	-0.149
CGTCACCA	-0.219
AAACCTGC	-0.121
CCCCGACC	0.101
AATAATGC	0.0744
CGGCAACA	0.365
GCTTGCAA	-0.268
TAATCTCA	-0.0951
ACGGGCTA	-0.139
CTTCTGAA	-0.0669
CCGCGACG	0.165
ACATGGCG	-0.0821
AAGTTAAA	-0.204

Sequence	PBM E-score
ATAGGTAG	-0.122
CGGGACGA	0.263
ACTTAAGC	-0.0689
AAAAAGAG	-0.186
GCGAATAA	-0.0694
AGACCGAG	0.294
AAGTCCAG	-0.193
CCAGGGCC	-0.175
GGAATGGA	0.0531
ACGATAAG	0.0585
AATTCTAC	-0.17
CTGGGAAG	-0.173
AAAGGGCC	-0.0436
CAAATGTC	-0.067
TCATTTCA	-0.15
CTGAGAAC	-0.0911
ATTGGCGC	0.00693
GGACAAAA	0.243
CGGCATTC	0.226
GGGGTATA	0.06
AGCCCACA	-0.188
ACATGGAC	-0.268
ATGCACCC	0.109
CACTCGAC	-0.106
ACGACTAG	-0.171

Sequence	PBM E-score
CATGGCGC	0.0301
CACGACGC	-0.018
ACGGGGCG	0.0234
CGCCCGCC	0.0876
CGCATCCG	0.408
AGATTTGC	-0.0414
ATCCATTA	0.0166
ATACATCG	0.115
AACGCATG	0.0295
AACAAGTT	-0.0149
AGTGCAGA	-0.0602
AGTACAGC	-0.108
AAAACCGC	-0.0584
AGGTCGTA	-0.232
ACTCCTCA	-0.249
ATACAATC	-0.0768
AAACTCCA	-0.203
CGTGTGGC	-0.262
AGTCATGG	-0.16
ACTACCAG	-0.145
CTCACACC	-0.0292
AATAAAGT	-0.104
AGAGAATG	-0.212
GCTATGCC	-0.0935
CCCTGCTA	-0.236

Sequence	PBM E-score
TCTATCAA	-0.247
ATCGCCAA	-0.259
GGGTCGCA	0.0668
ACCATGCG	-0.00748
ATGTCCTC	-0.121
CATTGGTA	0.0662
CGCCTATC	-0.0131
GCTCTTGA	-0.0465
ATCAAGAA	-0.199
AGTATCCA	0.0731
ACCCCTAT	-0.143
AAGATGAA	-0.0212
GTCAACGA	-0.347
CGACCTGC	0.108
CGATGTGC	0.161
CAGTGTGA	-0.0509
TGATTACA	-0.128
AGCTACTG	-5e-05
TAACGCCA	-0.0587
ATGCCTAG	-0.0631
CAACCTCC	0.0663
CGATCCGA	0.475
CTGCGCAA	-0.0522
CAAAACAC	0.00586
TAACTACA	-0.00302

Sequence	PBM E-score
CACCCTCC	0.104
CTGTATGA	0.0729
ACGTAGAG	-0.16
AACGAGCT	-0.256
AAACCTTC	0.0498
CCTCAGCG	-0.135
GATTGTTA	0.0433
CCAGTAGC	0.124
ATGAACTG	-0.0676
AGTGGAAG	0.012
CCCGACTC	0.298
ACTCCCAC	-0.111
GATGGCCA	-0.215
GTGCGTTA	-0.0338
TGATACAA	-0.224
ACCATTCT	-0.0382
GACAGGAA	0.0874
CACCCTGA	-0.0952
AATACTCG	0.0844
CTACAAGA	-0.114
CGTCTGTC	-0.0668
GACATGAA	-0.129
CGCTTTCA	0.0445
CGCGCACG	0.0643
CTCTAACC	0.0253

Sequence	PBM E-score
CAGCTCCG	0.21
CTTCTAAC	-0.111
AACTATAA	0.0489
TAAGCCTA	-0.0531
CGTAGCAG	-0.168
GGACTTCA	-0.0404
ACTTGGCA	-0.228
AGCCTATG	-0.207
GTTCTCAA	-0.264
CGACGCAC	0.0089
GATGGACC	-0.0264
ACTTCGCG	0.116
ACTACAAG	-0.119
CTCAGGTC	-0.129
CATGACCC	-0.0921
GCCACCAC	-0.263
CTCAACCC	-0.118
CACTTGCC	0.0414
ATTTATGG	-0.152
CTGCCTAA	-0.169
GGAACAGA	0.206
CATGTAGC	-0.212
AAGCGTGC	-0.14
TCTTTGCA	-0.167
ATGACCCG	0.131

Sequence	PBM E-score
GCATACGA	-0.201
CCGCAGAA	0.0874
CGTTTTCC	0.0321
CGAACTTA	0.105
CGACGTGC	-0.0466
ATCGTCTA	-0.179
CCTCGAAA	-0.27
AAGGAGTA	0.0501
AATTGTCG	0.0849
TATGGCCA	-0.103
AGTCGACA	-0.129
CTTAACTC	0.0687
GGCGATGA	-0.07
CGGCCAGC	0.0702
AGCCCGAG	0.231
AGAGCTCT	-0.0781
ACCAGCAC	-0.234
CCAAGCCG	0.0562
CCCAGAGC	-0.299
GGCATACA	0.0596
ACAGTCAC	-0.217
TAAGTTGA	-0.103
ACTTCCCT	-0.0362
CAGGCGTA	-0.127
GAGTGCCC	-0.138

Sequence	PBM E-score
GGTTCACA	-0.0832
ATCCGCGA	0.247
AAGGTATA	-0.0756
TAAGCGCA	-0.196
ACCAATGG	-0.0211
CACCCACC	0.0372
CCCCAGAA	-0.0466
GCCTACCA	-0.123
ATAATGAG	-0.184
CACACCTG	-0.179
AGGCACGG	0.17
CTCAGTTC	-0.172
AGATTGAT	-0.0377
GCATAGTA	-0.0527
AAGACGTG	-0.0373
CATGTTGA	0.0457
GCCGTCTA	0.0371
ATCTGTCG	0.139
CCATGCTA	-0.161
ATCCCTTA	-0.282
TCTTCAAA	-0.158
GTAACAAC	-0.0132
AAGTCTTA	-0.205
GCTAACAA	-0.0834
GGCGTGCA	-0.0222

Sequence	PBM E-score
TACACACA	-0.0626
CTAACAAA	-0.197
GTGCATGA	-0.101
CTCATCGC	-0.127
CGTCGATC	0.0907
ACCATAGA	-0.0437
AACCAGTA	-0.0318
AAACTGAT	-0.121
GTGCAACA	-0.127
TACCCTAA	-0.238
AGGTTTAT	0.0868
GTGTGATA	0.0375
CCTGTGCG	-0.126
CAACTTAA	-0.135
CGATGTTA	0.0139
AGTAGAAA	0.0591
CACTTACC	0.109
GAAGTAAC	0.0744
TGCCATAA	-0.107
CGGGGAAA	0.263
GTCTGGAA	-0.201
GACGTTAC	-0.0517
AAGGAGCG	-0.22
AGGGTACC	-0.112
GCGACATA	-0.237

Sequence	PBM E-score
AAGATGGC	-0.115
AATTCACC	0.111
GATATCCC	0.216
CAATGTGC	0.00847
GATATGCA	0.0512
ACGGATCC	0.352
ATGATCGA	-0.0115
AGTGAGAA	-0.0836
GCTCGCTA	-0.166
AGTACCAT	-0.115
ATAGGAGG	-0.228
TGGAATAA	0.072
CAGACATG	-0.18
AGCTACCC	0.0422
ATTATGCC	0.102
ACAACCGA	0.316
CGACCGTC	-0.0817
AGCGCGCG	-0.156
AATTCACT	-0.0731
ATCCTCAC	-0.0216
ATTGAAGA	-0.16
ACAGTCCT	-0.338
AAACCTCG	0.17
TCGCACCA	-0.0752
CGCACGGA	0.326

Sequence	PBM E-score
GAGATTAC	0.196
CTACACCC	0.057
CGGTCGCC	0.113
GCGGCCAC	-0.125
TTACCCAA	-0.217
ACCACACT	-0.0748
CGGTATCC	0.247
CTGAGGGC	-0.361
ATAAATAT	0.0712
GACGAAGA	-0.0979
ATAATTGA	-0.0432
TAGCTTGA	-0.109
CCCTCGCG	0.0204
TAGTGCGA	-0.0885
CGTGTAAC	-0.0163
ATCCCTCC	0.129
ACCTCGGC	0.415
ACAGTGCC	0.145
GACTTAGC	-0.14
